Experimental data: PubChem BioAssay AID504332 (National Center for Advancing Translational Sciences (NCATS), 2011)
The campaign covered roughly 350,000 compounds. About 31,000 (8.9%) were called active. The inconclusive results got no clear call from the source; some entries with a clear call stand among them for comparison. The call rests on the fitted dose curve; in most records, active means well fitted inhibition curve with a large enough effect; inconclusive means small, poorly fitted or top-dose-only effect; inactive means no such curve, though single readings can be large or run the other way. A potency beside an inconclusive call is a rough fit, not a confirmed value.

Biological target: Histone-lysine N-methyltransferase EHMT2 (Homo sapiens) (UniProt Q96KQ7)
Sequence of UniProt Q96KQ7 (Q96KQ7 whole entry, looked up): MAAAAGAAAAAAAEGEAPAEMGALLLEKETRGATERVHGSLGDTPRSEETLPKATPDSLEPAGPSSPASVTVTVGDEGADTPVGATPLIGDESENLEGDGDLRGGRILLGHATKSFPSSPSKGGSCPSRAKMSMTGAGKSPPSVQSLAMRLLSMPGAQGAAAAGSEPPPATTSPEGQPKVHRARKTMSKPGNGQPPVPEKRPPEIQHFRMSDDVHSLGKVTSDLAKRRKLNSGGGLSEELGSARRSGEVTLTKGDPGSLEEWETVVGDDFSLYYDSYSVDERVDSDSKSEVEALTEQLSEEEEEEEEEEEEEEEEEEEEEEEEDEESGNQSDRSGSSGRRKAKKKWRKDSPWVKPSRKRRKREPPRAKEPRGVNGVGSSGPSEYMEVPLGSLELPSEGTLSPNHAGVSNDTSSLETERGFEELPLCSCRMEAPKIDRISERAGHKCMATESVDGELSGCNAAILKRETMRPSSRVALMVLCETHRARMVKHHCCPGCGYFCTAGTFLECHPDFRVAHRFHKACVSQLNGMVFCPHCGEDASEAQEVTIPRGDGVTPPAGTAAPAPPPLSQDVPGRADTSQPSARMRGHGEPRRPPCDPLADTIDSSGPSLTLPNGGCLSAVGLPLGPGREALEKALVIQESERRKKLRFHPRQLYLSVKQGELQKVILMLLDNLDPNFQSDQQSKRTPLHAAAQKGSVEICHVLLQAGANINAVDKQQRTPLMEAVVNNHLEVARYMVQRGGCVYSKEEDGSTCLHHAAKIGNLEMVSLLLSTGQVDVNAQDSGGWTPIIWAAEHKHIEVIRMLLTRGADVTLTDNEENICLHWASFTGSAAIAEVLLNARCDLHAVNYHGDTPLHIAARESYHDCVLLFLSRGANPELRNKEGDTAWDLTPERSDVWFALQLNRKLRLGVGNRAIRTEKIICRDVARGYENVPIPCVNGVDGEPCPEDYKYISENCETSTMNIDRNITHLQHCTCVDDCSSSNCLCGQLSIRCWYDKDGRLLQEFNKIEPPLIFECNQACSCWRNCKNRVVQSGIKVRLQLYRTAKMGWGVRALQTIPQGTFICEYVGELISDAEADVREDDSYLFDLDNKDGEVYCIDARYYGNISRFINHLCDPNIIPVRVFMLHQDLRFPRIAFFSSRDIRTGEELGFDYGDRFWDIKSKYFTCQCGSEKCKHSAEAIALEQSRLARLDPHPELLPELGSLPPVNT
Assay: qHTS Assay for Inhibitors of Histone Lysine Methyltransferase G9a; further: nearly all actives have a fitted effect of over 75% in size
Conditions: G9a H3K9 monomethylation, AlphaScreen, 2 h; activity, negative = inhibition: at 59 µM (top of the series) unless noted
Procedure, shortened: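 G9a (20 nM) preincubated 15 min RT with compounds, then 500 nM biotinylated H3K9 peptide and 20 uM SAM added; 2 h RT reaction. Monomethyl-H3K9 product detected by AlphaScreen with anti-H3K9me1 antibody, streptavidin donor and anti-rabbit IgG acceptor beads.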
On the % scale 0 is the no-effect control and ±100 the full control effect; potency means the concentration at half of the fitted maximal effect; tags describe the fitted curve by direction and shape.

| SMILES | Potency | activity, negative = inhibition |
| --- | --- | --- |
| COc1ccc(S(=O)(=O)N(CC(N)=O)C2CCCCC2)cc1Cl | inactive | – |
| COc1ccc(CCNc2ccc(C(CC(N)=O)NC(=O)Cc3ccc(Br)cc3)cc2[N+](=O)[O-])cc1 (centres undefined) | – | inconclusive: -56.6% [inhibitor] |
| Cc1cccc(NC(=O)CCNS(=O)(=O)c2ccc3[nH]c(=O)oc3c2)c1 | inactive | – |
| Cc1c(CNCCc2ccc(Cl)cc2)c(C(=O)O)c(C)n1-c1ccccc1 | inconclusive: 89.1 µM [inhibitor, single point] | – |
| CN1CCN(CC(=O)N2c3ccccc3C(C)(c3ccc(Cl)cc3)CC2(C)C)CC1 (centres undefined) | inconclusive: 89.1 µM [inhibitor, single point] | – |
| CC(C)CNC(=S)Nc1ccc(Oc2ccccc2)cc1 | inconclusive: 79.4 µM [inhibitor, single point] | – |
| C=CCc1ccccc1OCCNCCCOC | active: 8.91 µM | – |
| Cc1[nH]c2ccccc2c1C1=NNC(=Nc2ccc(F)cc2)SC1 | inconclusive: 28.2 µM [inhibitor, single point] | – |
| NC(=O)CC(NC(=O)c1ccc(Br)cc1)c1ccc(N2CCC(Cc3ccccc3)CC2)c([N+](=O)[O-])c1 (centres undefined) | inconclusive: 12.6 µM [inhibitor, partial curve, poor fit] | – |
| Cc1nnc(SCCn2c(N(C)Cc3ccccc3)nc3c2c(=O)[nH]c(=O)n3C)s1 | inconclusive: 89.1 µM [inhibitor, single point] | – |
| NC(=O)Cc1ccc2c(c1)[nH]c1ccccc12 | inactive | – |
| O=C(O)C1CCCN1c1ncnc2ccccc12 (centres undefined) | inconclusive: 7.08 µM [inhibitor, single point] | – |
| COc1ccc(-c2cc(C(=O)Nc3c(C)n(C)n(-c4ccccc4)c3=O)c3ccccc3n2)cc1OC | inconclusive: 70.8 µM [inhibitor, partial curve, poor fit] | – |
| O=C(/C=C/c1ccccc1)N1c2ccccc2Sc2ccc(C(F)(F)F)cc21 | inconclusive: 79.4 µM [inhibitor, single point] | – |
| Cc1cccc(NC(=S)N2CCN(c3ccc(F)cc3)CC2)c1 | inactive | – |
| CCCC(c1nnnn1Cc1ccc(OC)cc1)N1CCN(C(=O)c2ccco2)CC1 (centres undefined) | inconclusive: 79.4 µM [inhibitor, partial curve, poor fit] | – |
| S=C1NCN(Cc2ccco2)CN1Cc1ccco1 | inconclusive: 35.5 µM [inhibitor, partial curve, poor fit] | – |
| CNCc1ccccc1 | – | inactive: -43.4% [at 2.33 µM] |
| Cc1ccc(C2(c3ccccc3)NC(=O)N(CC(=O)N(C)C3CCS(=O)(=O)C3)C2=O)cc1C (centres undefined) | inconclusive: 7.08 µM [inhibitor, full curve] | – |
| COc1ccc(NC(=O)N2CCC3(CC2)CCN(C(=O)c2cccc(F)c2)CC3)cc1 | – | inactive: -2.17% [at 12.7 µM] |
| OCC[C@@H]1C[C@H](O)[C@@H](O)[C@]2(OCCc3ccccc32)O1 | inactive | – |
| CCOC(=O)C1=C(CNCc2ccccc2Cl)NC(=O)NC1c1cccc([N+](=O)[O-])c1 (centres undefined) | inconclusive: 79.4 µM [inhibitor, partial curve, poor fit] | – |

| SMILES | Potency | activity, negative = inhibition |
| --- | --- | --- |
| CC(C)(C)C(=O)/C=C/c1ccc(Oc2ccccc2)cc1 | – | inactive: -10.4% [at 2.33 µM] |
| COc1ccc(S(=O)(=O)NC2CCc3ccccc32)cc1OC (centres undefined) | inactive | – |
| Cc1ccc(S(=O)(=O)N=Nc2c(O)[nH]c3ccccc23)cc1C | active: 4.47 µM | – |
| Fc1ccccc1N1CCN(c2nccn3nc(-c4ccc(Br)cc4)cc23)CC1 | inactive | – |
| O=C(NCc1ccccc1Cl)C1CCN(S(=O)(=O)c2ccc(N3CCCC3=O)cc2)CC1 | inactive | – |
| COc1ccc(C(=O)C2CCCN(Cc3ccc(Sc4nncn4C)o3)C2)cc1F (centres undefined) | inconclusive: 89.1 µM [inhibitor, single point] | – |
| O=C(O)COc1ccc(-c2nc(-c3ccccc3)c(-c3ccccc3)[nH]2)cc1 | inconclusive: 79.4 µM [inhibitor, single point] | – |
| N#CC(C#N)=c1ccc2c(c1)N1C3=C(CCCC3)CC3CCCCC31N=2 (centres undefined) | active: 2.24 µM | – |
| O=C(C[n+]1ccc(-c2nnc3n2CCC3)cc1)c1ccc(Cl)c(Cl)c1 | inconclusive: 39.8 µM [inhibitor, single point] | – |
| Clc1cc2cccnc2c2ncccc12 | inconclusive: 1.12 µM [inhibitor, partial curve, poor fit] | – |
| Cc1ccc2c(c1)CCCN2CC(=O)Nc1cccc(S(=O)(=O)N2CCCC2)c1 | inconclusive: 0.891 µM [inhibitor, partial curve, poor fit] | – |
| CSC1=N/C(=C\c2ccc(Br)o2)C(=O)S1 | – | inconclusive: -92.9% [inhibitor] |
| CSc1ncc(CN2CCc3c([nH]c4ccccc34)C2c2cccc(C)n2)cn1 (centres undefined) | inconclusive: 25.1 µM [inhibitor, single point] | – |
| Cc1ccccc1NC(=O)c1oc2c(c1C)-c1nn(Cc3cccc(Cl)c3)cc1CC2 | inactive | – |
| CCCC(=O)NC(=S)Nc1ccc(N2CCN(C(=O)c3cccs3)CC2)cc1 | active: 39.8 µM | – |
| CCCOc1ccc(C2C(C(=O)c3ccc(C)o3)=C(O)C(=O)N2CCN2CCOCC2)cc1OC (centres undefined) | inconclusive: 14.1 µM [inhibitor, partial curve, poor fit] | – |
| COc1ccc(C)cc1NC(=O)NC1CCN(Cc2ccccc2)CC1 | active: 14.1 µM | – |
| Cc1noc(C)c1CCC(=O)N1CCCC(CCC(=O)NCc2ccc(F)c(F)c2)C1 (centres undefined) | inconclusive: 0.282 µM [inhibitor, full curve] | – |
| CCCCNCCOc1ccccc1-c1ccccc1 | inconclusive: 31.6 µM [inhibitor, single point] | – |
| O=C1CC(c2ccccc2)CC(=O)C1=CN1CCCC1 (centres undefined) | inconclusive: 79.4 µM [inhibitor, partial curve] | – |
| Cc1ccc(Nc2nc(CSc3nnc(-c4cccnc4)n3-c3ccccc3C)cs2)cc1 | inconclusive: 22.4 µM [inhibitor, single point] | – |
| COc1cc(NS(=O)(=O)c2ccc(N/C=C\C(=O)c3ccc(F)cc3)cc2)nc(OC)n1 | inconclusive: 7.08 µM [inhibitor, full curve, poor fit] | – |
